Results taken from article PMC4336329 (PLoS ONE, 2015).
The campaign covered roughly 310,000 compounds. About 14,000 (4.5%) showed an effect of 50% or more. Effects have a minus sign here. The list shows a part of the results.
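Further: peak tail current of the secondary pulse compared with the same well before compound.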

Each compound was assayed against human ether-à-go-go-related gene (hERG) potassium channel (human, UniProt Q12809) (assay: primary screen, population patch clamp on CHO cells stably expressing hERG).
human ether-à-go-go-related gene (hERG) potassium channel, sequence (Q12809 whole entry, looked up): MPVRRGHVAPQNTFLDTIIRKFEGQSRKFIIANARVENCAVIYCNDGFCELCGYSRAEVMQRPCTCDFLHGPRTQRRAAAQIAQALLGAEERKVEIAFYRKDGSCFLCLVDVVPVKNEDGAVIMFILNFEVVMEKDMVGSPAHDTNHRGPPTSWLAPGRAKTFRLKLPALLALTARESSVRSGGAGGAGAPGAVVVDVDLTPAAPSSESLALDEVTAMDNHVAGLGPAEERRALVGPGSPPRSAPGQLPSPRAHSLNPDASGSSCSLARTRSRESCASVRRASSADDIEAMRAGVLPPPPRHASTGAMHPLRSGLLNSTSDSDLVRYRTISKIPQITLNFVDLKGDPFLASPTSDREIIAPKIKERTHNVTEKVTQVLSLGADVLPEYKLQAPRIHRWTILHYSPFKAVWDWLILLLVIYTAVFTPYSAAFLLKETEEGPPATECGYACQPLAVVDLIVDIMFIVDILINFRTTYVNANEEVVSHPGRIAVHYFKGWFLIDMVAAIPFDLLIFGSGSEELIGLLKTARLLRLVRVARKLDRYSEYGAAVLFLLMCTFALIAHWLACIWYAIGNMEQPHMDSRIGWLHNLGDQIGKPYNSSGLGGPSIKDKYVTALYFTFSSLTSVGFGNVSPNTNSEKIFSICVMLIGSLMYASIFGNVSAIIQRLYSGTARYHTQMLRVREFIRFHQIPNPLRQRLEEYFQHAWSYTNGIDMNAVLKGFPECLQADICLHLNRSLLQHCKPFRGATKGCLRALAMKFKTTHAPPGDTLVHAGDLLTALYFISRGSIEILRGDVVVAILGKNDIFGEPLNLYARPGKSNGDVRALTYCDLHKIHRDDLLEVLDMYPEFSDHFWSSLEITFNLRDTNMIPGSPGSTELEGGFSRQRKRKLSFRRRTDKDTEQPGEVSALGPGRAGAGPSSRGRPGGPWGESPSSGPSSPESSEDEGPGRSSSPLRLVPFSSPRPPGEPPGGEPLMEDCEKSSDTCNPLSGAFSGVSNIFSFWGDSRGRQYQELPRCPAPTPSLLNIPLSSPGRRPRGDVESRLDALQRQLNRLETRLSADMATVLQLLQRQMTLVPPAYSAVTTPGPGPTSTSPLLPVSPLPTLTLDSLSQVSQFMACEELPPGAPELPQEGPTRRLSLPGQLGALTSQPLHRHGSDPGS
For Cc1occc1C(=O)N1CCN(Cc2ccccc2)CC1, the “hERG current change (%, negative = inhibition) at 10uM” value was -1.16%. With Nc1ccc(S(=O)C(F)(F)F)cc1 (stereo not shown) the “hERG current change (%, negative = inhibition) at 10uM” value was 7.17%. In the case of COc1ccc2c(c1OC)C(=O)N1C2SC[C@H]1C(=O)NCCC(C)C (stereo partly shown), the “hERG current change (%, negative = inhibition) at 10uM” value is reported as 12.9%. For Cc1ccc(N(C=NC#N)CC(=O)N2CCN(c3ccccc3)CC2)cc1, the “hERG current change (%, negative = inhibition) at 10uM” value was -49.3%. With COc1ccc(-c2ccc3oc(-c4ccsc4)cc3c2)cc1 the “hERG current change (%, negative = inhibition) at 10uM” value was 28.4%. O=C(CCC(=O)N1CCCC1)Nc1ccc([N+](=O)[O-])cc1 was tested, and the “hERG current change (%, negative = inhibition) at 10uM” value was -1.25%. In the case of COc1cccc(C(=O)NC(C)c2ccc(-c3ccccc3)cc2)c1OC (stereo not shown), the “hERG current change (%, negative = inhibition) at 10uM” value is reported as 18.5%. COc1ccc(C2CC(c3ccc(Br)cc3)Nc3nc(N)nn32)cc1 (stereo not shown) was tested, and the “hERG current change (%, negative = inhibition) at 10uM” value was -43.5%. With COc1ccc(N2CCN(S(=O)(=O)c3ccc(Cl)s3)CC2)cc1 the “hERG current change (%, negative = inhibition) at 10uM” value was 24.2%. With Cc1c(Cl)c(=O)oc2cc(OCC(=O)NCc3cccs3)ccc12 the “hERG current change (%, negative = inhibition) at 10uM” value was -1.92%. O=C(CCc1nnc(Cc2ccc(-c3ccccc3)cc2)o1)NCCc1cccnc1 was tested, and the “hERG current change (%, negative = inhibition) at 10uM” value was -18.9%. CCc1nnc(NC(=O)/C=C/c2cccs2)s1 was tested, and the “hERG current change (%, negative = inhibition) at 10uM” value was 17.9%. CN(C)c1ccc(C(CNC(=O)c2ccc(C#N)cc2)c2c[nH]c3ccccc23)cc1 (stereo not shown) was tested, and the “hERG current change (%, negative = inhibition) at 10uM” value was -16.8%. COc1ccc(C(CNC(=O)C(C)(C)Oc2ccc(Cl)cc2)N2CCCC2)cc1 (stereo not shown) was tested, and the “hERG current change (%, negative = inhibition) at 10uM” value was -50.1%. For Cc1cccc2cc(/C=C/C(=O)c3ccco3)c(Cl)nc12, the “hERG current change (%, negative = inhibition) at 10uM” value was 12.9%. Cn1c(SCC(=O)NC2CCCCC2)nnc1-c1ccccn1 was tested, and the “hERG current change (%, negative = inhibition) at 10uM” value was 4.32%. For O=C(CCC(=O)N1CCC2(CC1)OCCO2)Nc1nnc(C2CCCCC2)s1, the “hERG current change (%, negative = inhibition) at 10uM” value was 15.8%. For COc1cccc(N=Nc2ccc3ccccc3c2O)c1, the “hERG current change (%, negative = inhibition) at 10uM” value was 32.2%. For Cc1ccc(-c2nc3c(=O)n(C)c4ccccc4c3o2)cc1, the “hERG current change (%, negative = inhibition) at 10uM” value was 22.3%. With COc1ccc(-c2noc3c2-c2nc(C(C)C)sc2CC3)cc1 the “hERG current change (%, negative = inhibition) at 10uM” value was 7.86%. O=c1[nH]c(=S)[nH]c(O)c1N=Nc1cccc(S(=O)(=O)N2CCOCC2)c1 was tested, and the “hERG current change (%, negative = inhibition) at 10uM” value was 9.03%. For Cc1ccc2c(c1)N(CCC(=O)NCc1cccs1)C(=O)C(C)O2 (stereo not shown), the “hERG current change (%, negative = inhibition) at 10uM” value was 9.51%. In the case of Cc1ccc(C2NC(=S)NC(c3ccc(C)cc3)C23C(=O)NC(=O)NC3=O)cc1 (stereo not shown), the “hERG current change (%, negative = inhibition) at 10uM” value is reported as 12.3%. O=C(CC1C(=O)NCCN1Cc1ccc(Cl)c(F)c1)NC1CCCCC1 (stereo not shown) was tested, and the “hERG current change (%, negative = inhibition) at 10uM” value was -8.15%. For CCn1nc(C(=O)Nc2ccc(S(=O)(=O)Nc3ncccn3)cc2)c2ccccc2c1=O, the “hERG current change (%, negative = inhibition) at 10uM” value was 18.1%. COc1ccc(S(=O)(=O)N2CC(C(=O)O)Oc3ccc(Cl)cc32)cc1 (stereo not shown) was tested, and the “hERG current change (%, negative = inhibition) at 10uM” value was 21%. For Cc1cc(CNC(=O)c2cc(COc3ccc(F)c(F)c3)on2)nn1C, the “hERG current change (%, negative = inhibition) at 10uM” value was -23.5%. In the case of CCCCC(=O)Nc1ccc(N2CCN(S(C)(=O)=O)CC2)cc1, the “hERG current change (%, negative = inhibition) at 10uM” value is reported as -19.8%. In the case of Cc1onc(-c2c(Cl)cccc2Cl)c1C(=O)N=C(N)N1CCCC1, the “hERG current change (%, negative = inhibition) at 10uM” value is reported as 10.7%. In the case of COc1ccc(Cc2nnc(SCC(=O)c3cccc([N+](=O)[O-])c3)n2C)cc1, the “hERG current change (%, negative = inhibition) at 10uM” value is reported as 0.41%. With COc1ccccc1NC(=O)N1CCCC(c2nc3c(nnn3Cc3ccc(C)cc3)c(=O)[nH]2)C1 (stereo not shown) the “hERG current change (%, negative = inhibition) at 10uM” value was -18.6%. C/C(=N\NC(=O)OC(C)(C)C)c1ccc[nH]1 was tested, and the “hERG current change (%, negative = inhibition) at 10uM” value was -2.93%. With O=C1c2ccccc2NC(c2ccccn2)N1c1ccc(Cl)cc1 (stereo not shown) the “hERG current change (%, negative = inhibition) at 10uM” value was -1.85%. In the case of CCOC(=O)C(NC(=O)CCl)(Nc1sc(C)c(CC)c1C#N)C(F)(F)F (stereo not shown), the “hERG current change (%, negative = inhibition) at 10uM” value is reported as -18.4%. With S=c1[nH]nc(-c2cc(-c3ccccc3)n[nH]2)n1/N=C/c1ccc(Cl)c(Cl)c1 the “hERG current change (%, negative = inhibition) at 10uM” value was 11.4%. CCCCC1(COC(=O)CCC(=O)O)C(=O)N(c2ccccc2)N(c2ccccc2)C1=O was tested, and the “hERG current change (%, negative = inhibition) at 10uM” value was 21.9%. With CC[n+]1c(C)n(C)c2cc(S(=O)(=O)N(C)C)ccc21.[I-] the “hERG current change (%, negative = inhibition) at 10uM” value was 9.18%. With NC1=C([N+](=O)[O-])C(c2ccc3c(c2)OCO3)C2=C(CCCC2=O)O1 (stereo not shown) the “hERG current change (%, negative = inhibition) at 10uM” value was 10.8%. In the case of CNC(=O)COC(=O)[C@@H](Nc1ccc(S(=O)(=O)N2CCOCC2)cc1[N+](=O)[O-])C(C)C, the “hERG current change (%, negative = inhibition) at 10uM” value is reported as -9.16%. In the case of O=c1/c(=C\c2cc([N+](=O)[O-])cc([N+](=O)[O-])c2O)sc2nc3ccccc3n12, the “hERG current change (%, negative = inhibition) at 10uM” value is reported as 13.4%. For CCC1(C(=O)OC)NC(c2ccco2)C2C(=O)N(c3ccc(F)cc3)C(=O)C21 (stereo not shown), the “hERG current change (%, negative = inhibition) at 10uM” value was 6.75%. With CC(=O)C1C(c2ccc(F)cc2)C2C(C)=NN=C2CC1(C)O (stereo not shown) the “hERG current change (%, negative = inhibition) at 10uM” value was 15.9%. With CS(=O)c1ccccc1-c1nc(-c2cccc(Cl)c2)no1 (stereo not shown) the “hERG current change (%, negative = inhibition) at 10uM” value was -27.1%. For CCOC(=O)N1CCN(C(=O)C2CCC(=O)N(CCCN3CCCC3=O)C2)CC1 (stereo not shown), the “hERG current change (%, negative = inhibition) at 10uM” value was 9.22%. Cc1nc(S(=O)(=O)N(C)Cc2ccccc2)c(C#N)c(C)c1Cl was tested, and the “hERG current change (%, negative = inhibition) at 10uM” value was 24.6%. In the case of CC1(C)CN(c2ccc(CC#N)cc2)C1=O, the “hERG current change (%, negative = inhibition) at 10uM” value is reported as 14.8%. In the case of Cc1ccccc1-c1nc2ccccc2c(=O)n1/N=C/c1ccc([N+](=O)[O-])cc1, the “hERG current change (%, negative = inhibition) at 10uM” value is reported as -36.8%. In the case of COC(=O)C1CCN(c2ccc(C(N)=O)cc2[N+](=O)[O-])CC1, the “hERG current change (%, negative = inhibition) at 10uM” value is reported as -5.64%. In the case of Cc1nn(-c2ccccc2)c(Cl)c1C(=O)Nc1nnc(C2CCCCC2)s1, the “hERG current change (%, negative = inhibition) at 10uM” value is reported as 13.2%. With CC(C)CCN(C(=O)c1cc(=O)[nH]c2ccccc12)c1c(N)n(Cc2ccccc2)c(=O)[nH]c1=O the “hERG current change (%, negative = inhibition) at 10uM” value was -7.4%. COC(=O)C1(C)NC(c2ccc(O)cc2)C2C(=O)N(c3ccc4c(c3)OCCO4)C(=O)C21 (stereo not shown) was tested, and the “hERG current change (%, negative = inhibition) at 10uM” value was 4.43%. For Cc1ccc(CNC(=O)CCC(=O)n2ncc3cc(C)ccc32)cc1, the “hERG current change (%, negative = inhibition) at 10uM” value was 2.19%. For O=C(Nc1ccccc1Oc1ccccc1)C1=COCCO1, the “hERG current change (%, negative = inhibition) at 10uM” value was -30.1%. For CCOC(=O)c1cnn2c(C(F)(F)F)cc(-c3cn(C)nc3C)nc12, the “hERG current change (%, negative = inhibition) at 10uM” value was -6.43%. With COc1ccc(/C=C/C(=O)Oc2ccc(/C=N/NC(=O)c3ccccc3)cc2)cc1OC the “hERG current change (%, negative = inhibition) at 10uM” value was -0.151%.
